Reference: a collection of fitness landscapes (doi:10.1016/j.celrep.2020.107928)
Over roughly 81,000 sequences, “one-hybrid fitness for binding NBS DNA” has its median near -0.1; the highest 2% begin near 0.36. The list shows a part of the results.

B1: Caulobacter ParB omega fusion; a variant is named by its letters at X, in order, B8GW30 (parent)
chain: MESVVVGEPGMSEGRRGLGRGLSALLGEVDAAPAQAPGEQLGGSREAPIEILQRNPDQPRRTFREEDLEDLSNSIREKGVLQPILVRPSPDTAGEYQIVAGERAWRAAQRAGLKTVPIMVRELDDLAVLEIGIIENVQRADLNVLEEALSYKVLMEKFERTQENIAQTIGKSXSHVANXMRLLXLPDEVQSYLVSGELTAXHARAIAAAADPVALAKQIIEGGLSVRETEALARKAPNLSAGKSKGGRPPRVKDTDTQALESDLSSVLGLDVSIDHRGSTGTLTITYATLEQLDDLCNRLTRGI

Variants of: B1
Assay: one-hybrid fitness for binding NBS DNA (the Noc-binding site; scaled: cognate 1, non-cognate 0); higher = stronger binding
Settings: with NBS DNA site
Procedure, shortened: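 The reporter was HIS3, with the binding site 19 bp from the promoter, in E. coli USO used for bacterial one-hybrid selection of Caulobacter ParB libraries with four specificity codons randomised. Growth was on M9 lacking histidine, with 0.1 mM IPTG and 5 mM 3-AT, for 48 hours at 37°C. Illumina sequencing covered plasmids before and after selection; three replicate libraries were pooled and variants with under 10 reads dropped. A fitness score is the log change in variant-to-wild-type read ratio, rescaled to the cognate and non-cognate references.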

| Variant | one-hybrid fitness for binding NBS DNA |
| --- | --- |
| MTLS | ≤ 0.2 |
| QPMY | ≤ 0.2 |
| WRFG | ≤ 0.2 |
| SATE | ≤ 0.2 |
| QLDT | 0.249 |
| ARYV | ≤ 0.2 |
| DCKC | ≤ 0.2 |
| CMSN | ≤ 0.2 |
| LLTK | ≤ 0.2 |
| QTDS | 0.331 |
| RAQF | ≤ 0.2 |
| NLWG | ≤ 0.2 |
| EPLR | ≤ 0.2 |
| CDPL | ≤ 0.2 |
| MVWT | ≤ 0.2 |
| VKCG | ≤ 0.2 |
| FGNG | ≤ 0.2 |
| RYHW | ≤ 0.2 |
| RAER | ≤ 0.2 |
| SDRC | ≤ 0.2 |
| PNPM | ≤ 0.2 |
| IWGC | ≤ 0.2 |
| SNAC | ≤ 0.2 |
| RLTA | ≤ 0.2 |

| Variant | one-hybrid fitness for binding NBS DNA |
| --- | --- |
| WRKA | ≤ 0.2 |
| PDPL | ≤ 0.2 |
| RKAR | 0.597 |
| PRCM | ≤ 0.2 |
| AGMI | ≤ 0.2 |
| GMHT | ≤ 0.2 |
| ADTS | ≤ 0.2 |
| QFMR | ≤ 0.2 |
| RPLN | ≤ 0.2 |
| QQTQ | ≤ 0.2 |
| DTAG | ≤ 0.2 |
| RRCW | ≤ 0.2 |
| CRHF | ≤ 0.2 |
| GAGG | ≤ 0.2 |
| LFWG | ≤ 0.2 |
| QMSF | ≤ 0.2 |
| CYSF | ≤ 0.2 |
| HKKS | ≤ 0.2 |
| LDLE | ≤ 0.2 |
| QRAC | 0.391 |
| TGHH | ≤ 0.2 |
| PYSM | ≤ 0.2 |
| MNCF | ≤ 0.2 |
| TQPA | ≤ 0.2 |

| Variant | one-hybrid fitness for binding NBS DNA |
| --- | --- |
| MERT | ≤ 0.2 |
| DLVV | ≤ 0.2 |
| LAAN | ≤ 0.2 |
| STFP | ≤ 0.2 |
| RHNQ | ≤ 0.2 |
| RKPW | ≤ 0.2 |
| FEDV | ≤ 0.2 |
| TPGW | ≤ 0.2 |
| QGSQ | ≤ 0.2 |
| RAEG | ≤ 0.2 |
| KRLS | 0.363 |
| PMCC | ≤ 0.2 |
| RDHR | ≤ 0.2 |
| QIKM | 0.249 |
| FQSR | ≤ 0.2 |
| YTTR | ≤ 0.2 |
| AWNG | ≤ 0.2 |
| QQPC | ≤ 0.2 |
| LQVG | ≤ 0.2 |
| VPMT | ≤ 0.2 |
| PCGL | ≤ 0.2 |
| KTII | ≤ 0.2 |
| RCDA | ≤ 0.2 |
| TVYT | ≤ 0.2 |

| Variant | one-hybrid fitness for binding NBS DNA |
| --- | --- |
| ARSV | ≤ 0.2 |
| SVLM | ≤ 0.2 |
| HFAL | ≤ 0.2 |
| QPEA | ≤ 0.2 |
| LPKP | ≤ 0.2 |
| HMPC | ≤ 0.2 |
| QVGC | ≤ 0.2 |
| VISR | ≤ 0.2 |
| PRVH | ≤ 0.2 |
| FKRS | ≤ 0.2 |
| FSGD | ≤ 0.2 |
| HHNQ | ≤ 0.2 |
| LEAF | ≤ 0.2 |
| EWDR | ≤ 0.2 |
| WDLY | ≤ 0.2 |
| RIMP | ≤ 0.2 |
| HGVY | ≤ 0.2 |
| SHTG | ≤ 0.2 |
| PFRP | ≤ 0.2 |
| SHPQ | ≤ 0.2 |
| LIAG | ≤ 0.2 |
| PMES | ≤ 0.2 |
| NREN | ≤ 0.2 |
| ERAV | ≤ 0.2 |

| Variant | one-hybrid fitness for binding NBS DNA |
| --- | --- |
| AEHK | ≤ 0.2 |
| TAHA | ≤ 0.2 |
| MWNV | ≤ 0.2 |
| PTSV | ≤ 0.2 |
| CHYS | ≤ 0.2 |
| TPPK | ≤ 0.2 |
| VCTL | ≤ 0.2 |
| RLML | ≤ 0.2 |
| CGRS | ≤ 0.2 |
| PSQD | ≤ 0.2 |
| PWLG | ≤ 0.2 |
| GTNM | ≤ 0.2 |
| PVRQ | ≤ 0.2 |
| RFCR | ≤ 0.2 |
| MCPF | ≤ 0.2 |
| DELS | ≤ 0.2 |
| TINV | ≤ 0.2 |
| MPAW | ≤ 0.2 |
| FPHR | ≤ 0.2 |
| PQQS | ≤ 0.2 |
| RPPD | ≤ 0.2 |
| KMGR | ≤ 0.2 |
| SNHT | ≤ 0.2 |
| NCNQ | ≤ 0.2 |

| Variant | one-hybrid fitness for binding NBS DNA |
| --- | --- |
| RGMA | ≤ 0.2 |
| GQSW | ≤ 0.2 |
| SSKM | ≤ 0.2 |
| SPPE | ≤ 0.2 |
| GHPE | ≤ 0.2 |
| LNRF | ≤ 0.2 |
| EFSC | ≤ 0.2 |
| HEEL | ≤ 0.2 |
| YRYE | ≤ 0.2 |
| DTQL | ≤ 0.2 |
| WPFG | ≤ 0.2 |
| EVSG | ≤ 0.2 |
| QSVN | ≤ 0.2 |
| ACES | ≤ 0.2 |
| PEYG | ≤ 0.2 |
| KEIR | ≤ 0.2 |
| VRSI | ≤ 0.2 |
| DINS | ≤ 0.2 |
| LSTL | ≤ 0.2 |
| CQPP | ≤ 0.2 |
| PDYW | ≤ 0.2 |
| TLGY | ≤ 0.2 |
| VTSC | ≤ 0.2 |
| PRMT | ≤ 0.2 |

| Variant | one-hybrid fitness for binding NBS DNA |
| --- | --- |
| LQQR | ≤ 0.2 |
| PDHL | ≤ 0.2 |
| ASSL | ≤ 0.2 |
| TQAS | ≤ 0.2 |
| SEHI | ≤ 0.2 |
| CHDS | ≤ 0.2 |
| QMQW | ≤ 0.2 |
| YNNT | ≤ 0.2 |
| YFST | ≤ 0.2 |
| SLGS | ≤ 0.2 |
| HNFR | ≤ 0.2 |
| VASP | ≤ 0.2 |
| REQE | ≤ 0.2 |
| SGSQ | ≤ 0.2 |
| VEMG | ≤ 0.2 |
| LKGS | ≤ 0.2 |
| THAV | ≤ 0.2 |
| TFYS | ≤ 0.2 |
| TGYT | ≤ 0.2 |
| VAEA | ≤ 0.2 |
| CTYV | ≤ 0.2 |
| NIAS | ≤ 0.2 |
| PQVV | ≤ 0.2 |
| PNAL | ≤ 0.2 |

| Variant | one-hybrid fitness for binding NBS DNA |
| --- | --- |
| LTPF | ≤ 0.2 |
| NNKG | ≤ 0.2 |
| FHKW | ≤ 0.2 |
| QQNQ | 0.242 |
| QIGE | ≤ 0.2 |
| TCAY | ≤ 0.2 |
| QDSY | ≤ 0.2 |
| QDKV | ≤ 0.2 |
| ISLP | ≤ 0.2 |
| LGMH | ≤ 0.2 |
| WRKE | ≤ 0.2 |
| SYSG | ≤ 0.2 |
| QFPE | ≤ 0.2 |
| QDWG | ≤ 0.2 |
| QLRD | ≤ 0.2 |
| LWAR | ≤ 0.2 |
| GPNV | ≤ 0.2 |
| WHEG | ≤ 0.2 |
| NQYG | ≤ 0.2 |
| TLVR | ≤ 0.2 |
| EGVR | ≤ 0.2 |
| LVTD | ≤ 0.2 |
| YSKQ | ≤ 0.2 |
| QCTM | ≤ 0.2 |

| Variant | one-hybrid fitness for binding NBS DNA |
| --- | --- |
| QTFE | ≤ 0.2 |
| RCIW | ≤ 0.2 |
| RSLC | ≤ 0.2 |
| GQLW | ≤ 0.2 |
| NATQ | ≤ 0.2 |
| IDPL | ≤ 0.2 |
| RCRE | ≤ 0.2 |
| QSTR | 0.531 |
| RHLT | 0.33 |
| QTAP | ≤ 0.2 |
| LNYG | ≤ 0.2 |
| FLRT | ≤ 0.2 |
| EYFS | ≤ 0.2 |
| YGLY | ≤ 0.2 |
| ETSQ | ≤ 0.2 |
| SIIC | ≤ 0.2 |
| DAPC | ≤ 0.2 |
| PRLP | ≤ 0.2 |
| MVLH | ≤ 0.2 |
| RRNA | 0.679 |
| AVVM | ≤ 0.2 |
| TYSY | ≤ 0.2 |
| MKKW | ≤ 0.2 |
| LPVR | ≤ 0.2 |

| Variant | one-hybrid fitness for binding NBS DNA |
| --- | --- |
| PDEH | ≤ 0.2 |
| HFYT | ≤ 0.2 |
| GGMG | ≤ 0.2 |
| QVKA | 0.345 |
| IVPT | ≤ 0.2 |
| ATSL | ≤ 0.2 |
| PEGG | ≤ 0.2 |
| NGNS | ≤ 0.2 |
| IVEC | ≤ 0.2 |
| ATAI | ≤ 0.2 |
| SPAR | ≤ 0.2 |
| AAVW | ≤ 0.2 |
| QQQK | ≤ 0.2 |
| KREK | ≤ 0.2 |
| PNVC | ≤ 0.2 |
| RICH | ≤ 0.2 |
| RDSV | ≤ 0.2 |
| RCGI | ≤ 0.2 |
| TMLG | ≤ 0.2 |
| VCLV | ≤ 0.2 |
| PNDN | ≤ 0.2 |
| PRKS | ≤ 0.2 |
| IMAM | ≤ 0.2 |
| QLQQ | ≤ 0.2 |

| Variant | one-hybrid fitness for binding NBS DNA |
| --- | --- |
| ICGY | ≤ 0.2 |
| GIRG | ≤ 0.2 |
| TAGC | ≤ 0.2 |
| MWRR | ≤ 0.2 |
| LLNI | ≤ 0.2 |
| QLQW | ≤ 0.2 |
| NPER | ≤ 0.2 |
| ADKY | ≤ 0.2 |
| SPTW | ≤ 0.2 |
| ASWV | ≤ 0.2 |
| LHEV | ≤ 0.2 |
| CNGV | ≤ 0.2 |
| RTLP | ≤ 0.2 |
| HYWS | ≤ 0.2 |
| VVRA | ≤ 0.2 |
| YLAW | ≤ 0.2 |
| QCRL | 0.401 |
| QSQT | 0.411 |
| VFTY | ≤ 0.2 |
| QYMM | ≤ 0.2 |
| SIGM | ≤ 0.2 |
| SPKV | ≤ 0.2 |
| VICC | ≤ 0.2 |
| QSGI | ≤ 0.2 |

| Variant | one-hybrid fitness for binding NBS DNA |
| --- | --- |
| DRRF | ≤ 0.2 |
| RLLY | ≤ 0.2 |
| HIHT | ≤ 0.2 |
| KYRN | ≤ 0.2 |
| MPSS | ≤ 0.2 |
| QWKT | 0.25 |
| VCQC | ≤ 0.2 |
| HKTT | ≤ 0.2 |
| ALGI | ≤ 0.2 |
| PLWS | ≤ 0.2 |
| RGQN | ≤ 0.2 |
| FEIG | ≤ 0.2 |
| RYPM | ≤ 0.2 |
| DATN | ≤ 0.2 |
| EPCM | ≤ 0.2 |
| RQNE | ≤ 0.2 |
| RAYH | ≤ 0.2 |
| THDI | ≤ 0.2 |
| PAGK | ≤ 0.2 |
| VVWY | ≤ 0.2 |
| VRVR | ≤ 0.2 |
| RTIV | ≤ 0.2 |
| QAHQ | ≤ 0.2 |
| NCLS | ≤ 0.2 |

| Variant | one-hybrid fitness for binding NBS DNA |
| --- | --- |
| LWGG | ≤ 0.2 |
| LRFC | ≤ 0.2 |
| VRMP | ≤ 0.2 |
| NRSE | ≤ 0.2 |
| RGGC | ≤ 0.2 |
| LAYG | ≤ 0.2 |
| ADRN | ≤ 0.2 |
| QYVE | ≤ 0.2 |
| DKRW | ≤ 0.2 |
| ANSA | ≤ 0.2 |
| KEMS | ≤ 0.2 |
| PFNI | ≤ 0.2 |
| RNYT | ≤ 0.2 |
| KMQS | ≤ 0.2 |
| SWNA | ≤ 0.2 |
| ICPS | ≤ 0.2 |
| QPAC | ≤ 0.2 |
| QGKM | ≤ 0.2 |
